# Test results published in ChEMBL document CHEMBL4888484, “Replenishing the malaria drug discovery pipeline: Screening and hit evaluation of the MMV Hit Generation Library 1 (HGL1) against asexual blood stage Plasmodium falciparum ,using a nano luciferase reporter read-out” (2022).
# The campaign covered roughly 150,000 compounds. About 540 (0.36%) showed an effect of 50% or more. This is one part of the list.
# Test system: Plasmodium falciparum
# Test: Primary screen in NF54 nanoGlo assay, in single point, at 2uM, 72h; a lower Z score goes with more inhibition
# Format: functional, Erythrocyte
# Conditions: timepoint 72 hour
Compound,% Inhibition,Z score
Cc1ccc(-c2ncc(C(=O)NCc3ccccc3)c(N3CCCC[C@@H]3C)n2)cc1,-2%,0.33
Cc1cc(-c2noc(CNC(=O)Cn3cnc4ccccc43)n2)no1,17%,-2.22
CC(=O)Nc1nc(N(C)C)c2nccnc2n1,10%,-1.15
O=C(CN[C@H]1CCc2ncnn2C1)Nc1ccc(Cl)cn1,-7%,0.9
CCc1noc(C2CCC(NCc3ccc(C(C)C)cc3)CC2)n1 (centres undefined),-7%,0.8
CN=C(NC)NCc1ccc(COC(C)C)cc1,3%,-0.58
CC1CC(CNS(=O)(=O)c2cccc(-n3cnnn3)c2)CCO1 (centres undefined),-10%,1.27
CC[C@H](C)N(Cc1csc(COc2ccc(Cl)cc2)n1)C(=O)c1ccc(F)cc1,-2%,0.32
Cc1cc(NS(=O)(=O)c2cc3n(c2)CCN(C(C)C)C3=O)ccc1F,-5%,0.86
Nc1nccc(N2CCC[C@H](OC(=O)c3ccc4c(c3)CCCC4)C2)n1,-12%,1.92
CCCN1CCCN(C(=O)c2ccc(-c3cc(C)c4nccn4c3)cc2)CC1,-13%,1.68
Cc1c(CN2CCn3nc(CCC(=O)NCCO)cc3C2)cc(C#N)n1C,-14%,1.95
Cc1nnc(CN(Cc2ccccc2)Cc2scnc2C)s1,8%,-1.06
O=S(=O)(CC1CCOC1)N1CCOC(C2CCC2)C1 (centres undefined),-4%,0.77
CCc1sc(C(=O)Nc2cc(S(=O)(=O)N3CCOCC3)ccc2OC)cc1C,-1%,0.11
Cc1ccc(C[C@H](NC(=O)Nc2cc(C)on2)c2cccnc2)cc1,-7%,1.31
COCCC1(CNC(=O)NCc2cc[nH]n2)CCCC1,-7%,0.84
Cc1nc(CO[C@H]2CCN(CC(=O)Nc3cccc(F)c3)C2)cs1,5%,-0.58
COc1ccc2c(C)c(C(=O)N3CCO[C@H]4CCCC[C@@H]43)oc2c1,-8%,1.67
CC(C)OCCc1nc(CC(=O)NC2CCCCC2)no1,-2%,0.16
NC(=O)[C@H]1CCCN(C(=O)Cn2nnc3ccccc3c2=O)C1,-5%,0.72

Compound,% Inhibition,Z score
CN1C(=O)[C@]2(CCN(C(=O)Nc3ccc4c(c3)OCO4)C2)c2ccccc21,-15%,1.93
COCCN1CC[C@H](c2ncnn2C2CCCCC2)C1,-7%,1.3
O=C(NCC(=O)N(C1CC1)[C@H]1CCc2ccccc21)NC1CC1,-7%,0.95
Cc1nnc(CN(C)Cc2nc3ccccc3o2)o1,-2%,0.29
O=C(N[C@H]1CCCc2cccnc21)c1cc(C(F)F)ncn1,3%,-0.39
CCN(C(=O)OC(C)(C)C)[C@H](C)CNC(=O)C(C)(C)N1CCN(C)CC1,-2%,0.33
COc1ccc(-c2nc3ccccc3s2)cc1COc1ccccc1F,4%,-0.49
CO[C@@H](CNC(=O)C1CCOCC1)C(C)(C)C,1%,-0.21
COc1ccc(CCc2nc(NC(=O)c3csc(NC4CC4)n3)n[nH]2)cc1,20%,-3.8
COc1ccc(OC)c(-c2cc(C(=O)NCc3ccc(-c4ccoc4)cc3)n(C)n2)c1,0%,-0.05
CCc1cnc([C@H](C)NC(=O)NCCN2CCC(OC)CC2)s1,-15%,1.37
COc1nnc(NC(=O)c2ccccc2C2CCC2)s1,-2%,0.2
COc1ccc(F)c(F)c1CN1CCC(c2ncon2)CC1,-6%,1.05
O=C(c1ccc(Cl)cc1Cl)N(Cc1nc2cc(Cl)ccc2o1)C1CC1,16%,-2.05
CC(=O)N[C@@H](CCC(N)=O)C(=O)NC1(C(C)(C)C)CC1,-3%,0.66
CCCN(CCO)Cc1ccc(F)cc1F,-15%,2.25
CC(C(=O)N1CCCC(c2c[nH]nn2)C1)C1CC1 (centres undefined),-6%,1.15
COc1ccc(NC(=O)[C@H]2CC(=O)OC2(C)C)cn1,-6%,0.73
Cn1nncc1C(=O)NCC1(CO)CCCC1,-2%,0.27
O=C(CC[C@@H]1NC(=O)NC1=O)N[C@H]1CCCN(Cc2ccccc2)C1,-6%,1.1
O=C1NC[C@@H]2CCC[C@@H](CCOc3ccccc3C(=O)N3CCN(Cc4ccc(Cl)c(F)c4)C[C@@H]13)O2,10%,-1.51
